Experimental data reported in PubChem BioAssay (Tox21).
Values joined by “and” are separate entries in the source; they are usually repeats but may differ in a detail not shown here. Equal values may be shown once. The shares of active, inactive and inconclusive entries below differ from those in the screen. A potency beside an inconclusive call is a rough fit, not a confirmed value. Active and inactive are the calls of the source. Calls follow the shape of the dose curve; as a rule, active = well fitted activation curve with a large enough effect in the signal ratio in the repeat runs (not every such curve was filed as active); inconclusive = weak or mixed curves, or effect the other way; inactive = no such curve, though single readings can be large or run the other way; the % refers to the signal ratio.

assay: qHTS assay for small molecule agonists of the antioxidant response element (ARE) signaling pathway (AID 743202); conditions: HepG2 ARE-bla reporter, beta-lactamase FRET, 16 h; activation: at 73.3 µM (top of the series) unless noted
From the text: U.S. Tox21 Program National Center for Advancing Translational Sciences [NCATS] NIH Chemical Genomics Center [NCGC] U.S. Environmental Protection Agency [EPA] National Institutes of Environmental Health Sciences [NIEHS] National Toxicology Program [NTP] U.S. Food and Drug Administration [FDA] Tox21 Assay Overview: Oxidative stress has been implicated in the pathogenesis of a variety of diseases ranging from cancer to neurodegeneration. The antioxidant response element (ARE) signaling pathway plays an important role in the amelioration of oxidative stress. The CellSensor ARE-bla HepG2 cell line (Invitrogen) can be used for analyzing the Nrf2/antioxidant response signaling pathway. Nrf2 (NF-E2-related factor 2) and Nrf1 are transcription factors that bind to AREs and activate these genes. The CellSensor ARE-bla Hep G2 cell line contains a beta-lactamase reporter gene under control of the Antioxidant Response Element (ARE) stably integrated into HepG2 cells. The activation of the report gene under culture conditions can be detected by fluorescence intensity. This cell line has been used to screen the Tox21 10K compound library to identify agonists that induce oxidative stress.
Tox21 Assay Protocol Summary: The ARE-bla cells were dispensed at 2,000 cells/5 ul/well in 1536-well black wall/clear bottom plates using a Multidrop dispenser. After the assay plates were incubated at a 37 C/5% CO2 incubator for 5 hours, 23 nL of compounds dissolved in DMSO, positive controls or DMSO only was transferred to the assay plate by a pin tool. The plates were incubated at 37 C for 16 hours. After 1 uL of LiveBLAzer B/G FRET substrate was added using a Flying Reagent Dispenser, the plates were incubated at room temperature for 2 hours, and fluorescence intensity was measured by an Envision plate reader.
% is scaled to controls: 0 for no effect and ±100 for the full control effect; potency is read from the fitted curve at half-maximal effect; tags tell the direction and shape of the fitted curve.

SMILES | Potency | activation
ClC1(Cl)C2(Cl)C3(Cl)C4(Cl)C(Cl)(Cl)C5(Cl)C3(Cl)C1(Cl)C5(Cl)C24Cl (stereo not given) | inconclusive: 1.72 µM [rising, full curve] | 
CCNc1nc(NCC)nc(SC)n1 | inconclusive: 68.6 µM | 
Cc1cnc[nH]1 |  | inactive: -9.84%
COc1cc2c(cc1OC)[C@@]13CCN4CC5=CCO[C@H]6CC(=O)N2[C@H]1[C@H]6[C@H]5C[C@H]43 |  | inconclusive: -2.35%
C[C@H](N)C(=O)c1ccccc1 |  | inconclusive: 6.94% [at 94.8 µM]
O=c1[nH]c(=O)n(Cl)c(=O)n1Cl |  | inconclusive: 27.1% [at 94.8 µM]
OCC(O)CCl (stereo not given) | inconclusive: 61.1 µM [falling, partial curve, poor fit] | 
CNC(=O)Oc1cccc(N=CN(C)C)c1 | inconclusive: 34.4 µM [rising, partial curve] | 
Clc1cccc(C(Cl)(Cl)Cl)n1 | inactive | 
CCN(CC)c1ccccc1 | inactive | 
ClCOCCl |  | inactive: 10.2% [at 94.8 µM]
CCOC(=O)N(C)N=O |  | inconclusive: -10.2%
COc1cc(Cl)c(OC)cc1Cl | inconclusive: 68.6 µM | 
c1ccc2nc(N3CCNCC3)ccc2c1 |  | inconclusive: -16.9%
CCN[C@@H](C)Cc1cccc(C(F)(F)F)c1 |  | inactive: -0.509%
N#CC(Cl)(Cl)Cl |  | inactive: 0%
CCN1CCCC1CNC(=O)C(O)(c1ccccc1)c1ccccc1 (stereo not given) |  | inconclusive: 11.7%
CCCC[N+]1(C)CCCC1 (tested in a mixture with another compound) |  | inconclusive: -17.9% [at 94.8 µM]
CS(=O)(=O)NC(=O)c1cc(Oc2ccc(C(F)(F)F)cc2Cl)ccc1[N+](=O)[O-] | inconclusive: 6.11 µM [falling, full curve] | inconclusive: -13.5%

SMILES | Potency | activation
COc1ccc(N)cc1 | inconclusive: 17.1 µM [rising, partial curve, poor fit] | 
CCC/C(=N\OCC)C1=C(O)CC(CC(C)SCC)CC1=O (stereo not given) |  | inconclusive: 9.61% [at 94.8 µM]
CCN(CC)Cc1nccn1-c1ccc([N+](=O)[O-])cc1C(=O)c1ccccc1Cl | active: 21.1 µM | 
CCSC(=O)N1CCCCCC1 | inactive | 
O=C(N/N=C/c1ccc([N+](=O)[O-])o1)c1cc([N+](=O)[O-])cc([N+](=O)[O-])c1O | inconclusive: 2.98 µM | 
Clc1nc(Cl)nc(Nc2ccccc2Cl)n1 |  | inconclusive: 29.2%
O=[N+]([O-])c1ccc2c3c(cccc13)CC2 | inconclusive: 61.1 µM [rising, partial curve] | 
CCCCOCCOC(C)=O |  | inconclusive: -18.2%
CC[n+]1c(-c2ccccc2)c2cc(N)ccc2c2ccc(N)cc21 | inconclusive: 1.33 µM [rising, full curve] | inconclusive: -59%
C=CC=O | inconclusive: 27.9 µM [rising, partial curve] | 
Cc1cc(-c2cc(C)c(N)c(C)c2)cc(C)c1N | inactive | 
CCS(=O)(=O)CCSP(=O)(OC)OC | active: 8.63 µM | 
C=CCN1CC[C@]23CCCC[C@H]2[C@H]1Cc1ccc(O)cc13 |  | inactive: -5.76%
COC(=O)c1ccc(CBr)cc1 |  | inactive: 11.1% [at 94.8 µM]
CNCC(=O)c1ccc(O)c(O)c1 | inconclusive: 11.9 µM [falling, partial curve, poor fit] | 
OC(Cn1cncn1)(c1ccc(F)cc1)c1ccccc1F (stereo not given) |  | inactive: -6%
ClCCCN1CCN(c2cccc(Cl)c2)CC1 | active: 6.68 µM | 
CC(=O)NNc1ccccc1 |  | inactive: -18.2%

same assay, conditions: HepG2 ARE-bla reporter, beta-lactamase FRET, 16 h; at 73.3 µM (top of the series)

SMILES | activation
O=c1[nH]c(=O)n(Cl)c(=O)n1Cl | inactive: 1.14% and inactive: -6.44%
